Results from paper PMC12136788.
Changes are numbered by the printed parent chain. This is one part of the list.

B1: chr4:140556289:140556290:+_ENSMUSG00000036622_ENSMUST00000037055|mus_mus|mus_mus_mus_hu_False|38_48 (ssRNA)
RNA: GGGAGUUCUACAGUCCGACGAUCGAUGGAGCUCACCAGGCCCCCUUUUGCCGUGCAGAACCCUGUGCGGGUCACCACUGCCAGGACACGGGGUCCCACGUAGGCUCGGGCCUGCAAGAUGAGGGUCCCGCAGAAGAGUGUGUGCAACAGAGGAUUGAGCAUCA
B2: 33281170_33284196_2202_CDS_ENSG00000083642_ENST00000315596|human|control|control (ssRNA)
RNA: GGGAGUUCUACAGUCCGACGAUCGAAAAUUUGUAGUGCAGCUUCUGCUACUUUUUCAUCAUCCAUUUUCAGACAAGCCAGUAAUGAUUCAAAUGUUUCAGCAGAAUGAAAUGAGAUGGGAUGUGUAAAUGAGAGUACCUUAAGCAACAGAGGAUUGAGCAUCA
B3: 10106795_10116523_2921_CDS_ENSMUSG00000056763_ENSMUST00000071087|mouse|control|control (ssRNA)
RNA: GGGAGUUCUACAGUCCGACGAUCAAAAGUAGUAGCAUCUAAGCCCUUAGGCGAUGGUCUUCUGACAGGGGCUUGUACCCGAUGUCUAGCCAUGUCAAAUAUAUCCAUUGGGUUCCUCUCUCUUUUCCUCAUGGGGAUCUCGUCCAACAGAGGAUUGAGCAUCA
B4: chr16:94637918:94637919:+_ENSMUSG00000040785_ENSMUST00000117648|mus_hu|FALSE|FALSE (ssRNA)
RNA: GGGAGUUCUACAGUCCGACGAUCAUCCUGGUGUGCAGCUCUGGAAGAUUUAGAAAACUGUUUCUCCAAGAUGUUCUUCAAAUCUGCUGGUAAAGUCAAUGGUGAACUAGAACUGAACUUUUCUGAUUCAUUGUUUCGAGAUUUCAACAGAGGAUUGAGCAUCA
B5: chr11:87793471:87793472:-_ENSMUSG00000020483_ENSMUST00000020775|mus_mus|mus_mus_mus_hu_False|28_38 (ssRNA)
RNA: GGGAGUUCUACAGUCCGACGAUCUGGACUUGAAAAUAAAAGAAUAAGCUGGAUCCCCCACCCCCCCACAUUGUCAACCCUACACGAGAGUUUUGAAUGAUUCAUAAGAAUCAGCAGAGCUCAAACGGCAAUGACCACCCCACCCAACAGAGGAUUGAGCAUCA
B6: chr11:74504092:74504093:-_ENSMUSG00000020745_ENSMUST00000021091|mus_hu|motif|central (ssRNA)
RNA: GGGAGUUCUACAGUCCGACGAUCCUUCCUUUUUAAAAACUGAAUAUGCCUCUUCAUAGCCAUUUGAACGAAGAUAAUCUGCGGUAGCUCGAUUUAGUUCAUCUCGUUGUCUCUGGGACAGCACCAUCUUGGCUGUAAUGUCAACAACAGAGGAUUGAGCAUCA
B7: chr7:135612270:135612271:-_ENSG00000105887_ENST00000393085|hu_mus|hu_hu_hu_mus_False|8_58 (ssRNA)
RNA: GGGAGUUCUACAGUCCGACGAUCGUUUUUUUCUGAGAUGUUAAAUAGUACUUCAGUGGAAAACAAAACUUAACCUUUCGCUAAUGCGUGUUGUACCAAAAGCAGACAUUUUAGCUUCAUUUAUUCACUCAAAAUAUCAUUAAGCAACAGAGGAUUGAGCAUCA
B8: chr1:220276048:220276049:+_ENSG00000067704_ENST00000302637|hu_hu|hu_hu_hu_mus_True|1_18 (ssRNA)
RNA: GGGAGUUCUACAGUCCGACGAUCGCAAAUUGCCUGGUUGGCGGGAAUUGUCCAAGGCUGGGUGGUCCAAACUAAAACGCUAACAGGGGAUGAGGCAUCUGUAAGAGACUCCAACUUUGGAGAAGGCCUCAGGAGGGGAAAUUUCAACAGAGGAUUGAGCAUCA
B9: chr4:48472875:48472876:-_ENSMUSG00000028345_ENSMUST00000030030|mus_mus|motif|central (ssRNA)
RNA: GGGAGUUCUACAGUCCGACGAUCACUGUUCAAUCUAGUGCCACCUUUAAGGGUCUCCGUCACAAACUUCCUUAUUGUUUCGGUCCAACUGGAAUCAUUCUGUAAGGUUGAAGCAUUUGCCAGCGAGACCAUGAUAUCAGACAGCAACAGAGGAUUGAGCAUCA
B10: chr15:75216061:75216062:-_ENSG00000178741_ENST00000564811|perfect_dup|FALSE|FALSE (ssRNA)
RNA: GGGAGUUCUACAGUCCGACGAUCUUUGUCAAGGCCCAGUUCCUCCGGAGUGGAGAUUCCCAGUUCAUUUAAAGUUGGUCUAAGUUCCUGGAUGACAUAGGGGUAGAUUUCCUUAUGAGGUCCUGCUUUGUCCUUAACAACCUCCAACAGAGGAUUGAGCAUCA
B11: 32954790_32955657_1719_CDS_ENSG00000178904_ENST00000392250|human|control|control (ssRNA)
RNA: GGGAGUUCUACAGUCCGACGAUCUACUGAAUAUCGCAUUAUACAUAUCCUCUUUGGGUUAUAAAGAUGGACUGACUUCAGAAGUAACUCCCAUAUUUCAGGGCUACAUAGGCCGAAUGAUGCGAACACACACAUGUGUGACGUCAACAGAGGAUUGAGCAUCA
B12: chr11:46405157:46405158:+_ENSG00000110492_ENST00000395566|hu_hu|hu_hu_hu_mus_False|58_68 (ssRNA)
RNA: GGGAGUUCUACAGUCCGACGAUCCCCUCCCCACUUUGGGCACUUGGUGUGGGCGUGAGAGGACAGGAUGAUUGAUUAAAGCUAACGGGAAGACAAAAGGCACUGGUGGGUUAUAUCUUGGGCCUGUGGGAGAGGAGGGCUCCGCAACAGAGGAUUGAGCAUCA
B13: chr12:39756943:39756944:-_ENSG00000139116_ENST00000544797|hu_mus|hu_hu_hu_mus_False|8_58 (ssRNA)
RNA: GGGAGUUCUACAGUCCGACGAUCGGUUUGGCUGUUACCCCCAAGGGAAUCCUGCAAGAGUCUUGUCAGCUUAGAGUCUCUAUAGGGGACAUGGGUGGCUCUCUUGCUCUUGUCCCCCAAGGCGCUGAUUACAUUGCCAAGAGCCAACAGAGGAUUGAGCAUCA
B14: chr17:64801638:64801639:+_ENSG00000154229_ENST00000413366|hu_mus|hu_hu_hu_mus_False|8_8 (ssRNA)
RNA: GGGAGUUCUACAGUCCGACGAUCUAUAUAUAUAUAUACAUAUGUACACAUAUAUAGUAAAACCCUAGUUAAACGUGUAAAGUAGCCAUUCAUUUUUAAAAUUACAUCUACAUUAAAAAAUUAAUAUAUCUGAUACAGUGCCAGCAACAGAGGAUUGAGCAUCA
B15: chr3:105540709:105540710:-_ENSMUSG00000068798_ENSMUST00000090678|mus_hu|motif|central (ssRNA)
RNA: GGGAGUUCUACAGUCCGACGAUCUCUGACCAGGUCAUAAAAUAUCUCAUUAACAUUGAUCUUUGACUUUGCAGAAGAUUCGGAAAAGGCACAGUUACACCACUGUCUUGCUAAAUUCUGGCCCUGCUCUUUGCCAACUACUCGCAACAGAGGAUUGAGCAUCA
B16: 43428741_43428998_1889_CDS_ENSG00000052841_ENST00000039989|human|control|control (ssRNA)
RNA: GGGAGUUCUACAGUCCGACGAUCAGCCCUCUGAAGACAGGCAAUAGCAAAAGUGCUAUUUCCUACUGCUCUCCAGUAUAGUCCAGCUUCAUUGAGUAUGAGCCAGAUAGGAGCAUUUGGCUUAUUAAUAGCAUGAAAUAAGAACAACAGAGGAUUGAGCAUCA
B17: chr1:58468927:58468928:-_ENSMUSG00000026034_ENSMUST00000148330|mus_mus|mus_mus_mus_hu_False|8_38 (ssRNA)
RNA: GGGAGUUCUACAGUCCGACGAUCAAUUACUGAAAAAGAUGUUCAUUACCUUAGCUAUGUACUUAAUGAACCAAAUUACCCAAACAAAAUAAACAUGUUUACAAAUUAAUGUUAAGAAUUUACAAAGAUUAAAAGCUUAACUUACAACAGAGGAUUGAGCAUCA
B18: chr4:140556289:140556290:+_ENSMUSG00000036622_ENSMUST00000037055|mus_mus|mus_mus_mus_hu_False|1_8 (ssRNA)
RNA: B1 RNA with A87G, C88U, G90C, G99A, U105C, G129A, U138G
B19: chr9:95013113:95013114:-_ENSG00000196305_ENST00000443024|hu_hu|hu_hu_hu_mus_False|78_98 (ssRNA)
RNA: GGGAGUUCUACAGUCCGACGAUCCUCAGUCAGAAAGGGUGUGUAGGGGGCCAUCAGUCUGCAAAGAGAAAGCAGGACACUGAACAGUGUCUCCAGAGCCAUGACACAGUCUUCCACCCCACUCUCACCCUUUAACCUCCUCCUCAACAGAGGAUUGAGCAUCA
B20: chr14:21343309:21343310:-_ENSMUSG00000021816_ENSMUST00000161445|mus_hu|FALSE|FALSE (ssRNA)
RNA: GGGAGUUCUACAGUCCGACGAUCAGGAUCGGACCAUAACAAGUCACACAUUGGUCCAAAUGCAGGUGGCUCUUUGAAUCUAUCUAAUCUCCUAAUAUCAUCCAGUGUGUGUAUUUCUGGUGAAAGUCCACCAUGAACACAAAGCAACAGAGGAUUGAGCAUCA
B21: chr12:25362807:25362808:-_ENSG00000133703_ENST00000311936|hu_hu|FALSE|FALSE (ssRNA)
RNA: GGGAGUUCUACAGUCCGACGAUCUUUCUUCUUUUUACCAUCUUUGCUCAUCUUUUCUUUAUGUUUUCGAAUUUCUCGAACUAAUGUAUAGAAGGCAUCAUCAACACCCUGUCUUGUCUUUGCUGAUGUUUCAAUAAAAGGAAUCAACAGAGGAUUGAGCAUCA
B22: chr14:76904430:76904431:+_ENSMUSG00000022010_ENSMUST00000022587|mus_mus|mus_mus_mus_hu_True|1_48 (ssRNA)
RNA: GGGAGUUCUACAGUCCGACGAUCUGCAGCCAAAAACACCCUCGUGGAAAAAAAGAGGGAACACCAGCAGCCUUGUAUAAGCUAGAUAAAACCGCCUGGCUUUCCGCAGCCCAGGGAGAAACAGAAAACGGCAGCCCUCGAGUGCAACAGAGGAUUGAGCAUCA

The binders below were run against T1, UNK ZnF1-3 (human, UniProt Q9C0B0 31-174) (assay: nsRBNS (natural sequence RNA bind-n-seq); RBNS binding buffer (assumed for nsRBNS): 25 mM Tris pH 7.5, 150 mM KCl, 3 mM MgCl2, 0.01% Triton X-100, 500 ug/ml BSA, 20 U/ml SUPERase-In, 4 C; UNK is unkempt and MSI1 is Musashi-1; names of the RNAs are library labels; protein concentration not given here; high values mean tight binding).
T1 sequence: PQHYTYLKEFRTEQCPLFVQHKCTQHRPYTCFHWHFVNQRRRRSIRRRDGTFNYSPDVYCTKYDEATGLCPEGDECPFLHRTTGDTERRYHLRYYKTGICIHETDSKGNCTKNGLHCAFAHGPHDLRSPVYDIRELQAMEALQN

| Binder | binding signal |
| --- | --- |
| B1 | 1.02 enrichment R |
| B2 | 1.02 enrichment R |
| B3 | 0.72 enrichment R |
| B4 | 0.794 enrichment R |
| B5 | 1.59 enrichment R |
| B6 | 0.634 enrichment R |
| B7 | 0.462 enrichment R |
| B8 | 2.49 enrichment R |
| B9 | 0.832 enrichment R |
| B10 | 0.551 enrichment R |
| B11 | 0.522 enrichment R |
| B12 | 2.05 enrichment R |
| B13 | 0.655 enrichment R |
| B14 | 1.72 enrichment R |
| B15 | 1.08 enrichment R |
| B16 | 1.51 enrichment R |
| B17 | 0.974 enrichment R |
| B18 | 0.756 enrichment R |
| B19 | 1.19 enrichment R |
| B20 | 0.748 enrichment R |
| B21 | 0.454 enrichment R |
| B22 | 1.8 enrichment R |
